Out of some 120,000 compounds screened, about 5,300 (4.4%) were called active. Inconclusive results, whose numbers are uncertain, are shown with a selection of clear calls. The call rests on the fitted dose curve; in most records, active means well fitted inhibition curve with a large enough effect; inconclusive means small, poorly fitted or top-dose-only effect; inactive means no such curve, though single readings can be large or run the other way. Where the call is inconclusive, the potency comes from a doubtful curve fit.
Assay: qHTS Primary assay for Inhibitors of Plasmodium falciparum Dd2 growth in vitro; further: nearly all actives have a fitted effect of over 65% in size;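 on activity, negative = inhibition: plate controls were DMSO vehicle for no effect and reference drug for full effect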
Conditions: P. falciparum Dd2 growth, SYBR Green, 72 h; activity, negative = inhibition: at 28.9 µM (top of the series) unless noted; series mostly up to 28.9 µM
How it was run: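 Readout: SYBR Green fluorescence, 485 nm excitation, 535 nm emission, after ~16 h lysis at 37C. Before that, Dd2-infected red cells (2.5% hematocrit) grew 72 h with compound, 29 uM top final concentration.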
Potency means the concentration at half of the fitted maximal effect; tags describe the fitted curve by direction and shape.

| SMILES | Potency | activity, negative = inhibition |
| --- | --- | --- |
| O=C(CC1=C2CCCCC2N(Cc2ccc(F)cc2)C1=O)Nc1ccc(F)cc1 (centres undefined) | inconclusive: 17.8 µM [inhibitor, single point] |  |
| CCCc1sc(NC(=O)CC[C@H]2NC(=O)c3ccccc3NC2=O)nc1C(=O)OC | inconclusive: 14.1 µM [inhibitor, partial curve, poor fit] |  |
| O=C(NCc1ccc2c(c1)OCO2)c1nc(-c2ccsc2)c2ccccn12 | inconclusive: 12.6 µM [inhibitor, single point] |  |
| COC[C@@H]1OC[C@@]2(C)C3CC[C@@H](O)[C@@H](CC(=O)N4CCCCC4)[C@]3(C)CC[C@H]2O1 (some centres undefined) | inactive |  |
| Cc1ccccc1CNCCSc1nnnn1-c1ccccc1 | inconclusive: 17.8 µM [inhibitor, single point] |  |
| COCc1nc(-c2nc3c([nH]2)CC(c2ccc(Cl)cc2)CNC3=O)no1 (centres undefined) | inconclusive: 14.1 µM [inhibitor, partial curve, poor fit] |  |
| CC1(C)CNC(=O)c2nc(CC3CCCCN3C3CCCC3)[nH]c2C1 (centres undefined) | inactive |  |
| CC1=C[C@@H](CN)[C@H](C(C)C)C[C@H]1Cc1nc2ccc(C)cc2[nH]1 | active: 10 µM |  |
| O=C(NCc1c[nH]c2ncccc12)c1ccccc1F | inconclusive: 22.4 µM [inhibitor, single point] |  |
| Clc1ccc(CN2CCOC[C@H](Oc3cccnc3)C2)cc1 | inconclusive: 31.6 µM [inhibitor, single point] |  |
| COc1ccc(-n2cnc3cccnc32)cc1 | inactive |  |
| CSc1ccc(CCNc2ncnc3onc(-c4ccc(Cl)cc4)c23)cc1 |  | inconclusive: -96.9% [inhibitor] [at 5.79 µM] |
| CCOc1ccc(C(=O)N2CCCC(c3noc(COc4ccccc4)n3)C2)cc1 (centres undefined) | inconclusive: 17.8 µM [inhibitor, single point] |  |
| Cc1cc2cc(-c3c(C)noc3C)nc(Nc3ccccn3)c2o1 | inconclusive: 31.6 µM [inhibitor, single point] |  |
| O=C(Nc1ccc2nc(SCCOc3ccccc3)sc2c1)c1ccc2c(c1)OCO2 | inconclusive: 4.47 µM [inhibitor, partial curve, poor fit] |  |
| CCOC(=O)C1=C(C)N=C2SC=C(CC(=O)N3CCCCC3)N2C1c1cccc(OC)c1 (centres undefined) | inconclusive: 2.51 µM [inhibitor, partial curve, poor fit] |  |
| Cc1nn(-c2ccccc2)c(C)c1CN1CCC2(Cc3ccccc3CNC2=O)C1 (centres undefined) | inconclusive: 7.08 µM [inhibitor, partial curve] |  |
| CS(=O)(=O)N1C[C@H]2CCN(Cc3cc(F)ccc3F)C[C@H]21 | inactive |  |
| COc1ccc(C2C(C(=O)Nc3ccccc3)=C(C)Nc3nc(-c4ccccc4Cl)nn32)cc1OC (centres undefined) | inconclusive: 12.6 µM [inhibitor, single point] |  |
| CCOC(=O)c1scc(-c2ccc(C)cc2)c1S(=O)(=O)Nc1ccc(OC)c(Cl)c1 | inconclusive: 17.8 µM [inhibitor, single point] |  |
| Cn1c([C@H]2CCN(Cc3ncc[nH]3)C2)nc2ccccc21 | inconclusive: 31.6 µM [inhibitor, single point] |  |
| N#Cc1ccc(CN2C[C@@H](COCC(N)=O)[C@H](c3ccncc3)C2)cc1 | inconclusive: 17.8 µM [inhibitor, single point] |  |

| SMILES | Potency | activity, negative = inhibition |
| --- | --- | --- |
| CN1CCSc2ccc(C(=O)NCc3ccccc3)cc21 | inconclusive: 11.2 µM [inhibitor, single point] |  |
| CN1CC(=O)N(C2CCCC2)Cc2c(NC3CCNCC3)ncnc21 | inactive |  |
| O=C(Nc1cnc(-c2cccnc2)nc1)C1CCCC1 | inconclusive: 1.58 µM [inhibitor, partial curve, poor fit] |  |
| CCCOc1cccc(C2c3c(oc4ccc(F)cc4c3=O)C(=O)N2Cc2ccc3c(c2)OCO3)c1 (centres undefined) | inconclusive: 0.0398 µM [inhibitor, full curve, poor fit] |  |
| FC(F)(F)c1ccc2c(c1)nc1n2[C@@H](CNC2CCC2)COC1 | inconclusive: 10 µM [inhibitor, partial curve, poor fit] |  |
| COC1CCCOC12CCN(C(=O)CCn1c(C)nc3ccccc31)CC2 (centres undefined) | inactive |  |
| COc1ccccc1N1CCN([C@H]2[C@@H]3OC[C@@H](O3)[C@@H](NC(=O)Nc3cccc(C#N)c3)[C@@H]2O)CC1 | inactive |  |
| CC(C)(C)c1ccc(-n2ncc3c2CCCC3NC(=O)Cc2n[nH]c(=O)[nH]2)cc1 (centres undefined) | inactive |  |
| Cc1nc2ccn(Cc3cccs3)c(=O)c2cc1C(=O)N1CCN(c2ccccc2)CC1 | inconclusive: 17.8 µM [inhibitor, single point] |  |
| CC(C)CCC(=O)N1CCc2nc(N3CCN(C)CC3)sc2C1 | inconclusive: 17.8 µM [inhibitor, single point] |  |
| OC(COc1ccccc1-c1ccncc1)CN1CCOCC1 (centres undefined) | inactive |  |
| COc1cc(OC)c(NC(=O)CCn2ccn3nc4c(c3c2=O)CCCC4)cc1Cl | inconclusive: 10 µM [inhibitor, single point] |  |
| O=C(Nc1cc(F)cc(F)c1)Nc1cccc(-c2ccc(N3CCOCC3)nn2)c1 | inconclusive: 20 µM [inhibitor, single point] |  |
| CCNC(=O)c1ccc2c(c1)OCCN(c1cccc(OC(F)(F)F)c1)C2 | inconclusive: 2.82 µM [inhibitor, full curve] |  |
| Cc1nc2cc(-c3ccccc3)nn2c(C)c1CCC(=O)NCc1cccc(Cl)c1 | inconclusive: 17.8 µM [inhibitor, single point] |  |
| Cn1ccc(CN2CCC3(C2)NC(=O)c2ccccc2CO3)c1 (centres undefined) | inconclusive: 11.2 µM [inhibitor, partial curve] |  |
| COc1cc2[nH]c(=O)n(CCCCCC(=O)N3CCN(c4ccc(Cl)cc4)CC3)c(=O)c2cc1OC | inconclusive: 6.31 µM [inhibitor, partial curve, poor fit] |  |
| Cc1cccc(Cn2c(=O)n(CC3CCC(C(=O)N4CCC(C)CC4)CC3)c(=O)c3sccc32)c1 (centres undefined) | inconclusive: 8.91 µM [inhibitor, partial curve, poor fit] |  |
| CNC(=O)CCn1ncc2cc(OCc3ccccc3-c3ccc(F)cc3F)ccc21 | inconclusive: 31.6 µM [inhibitor, partial curve, poor fit] |  |
| Cn1nc(C(=O)N2C[C@@H](Oc3cccnc3)C[C@H]2C(=O)NC2CC2)c2ccccc21 | inactive |  |
| Cc1ccc(C(=O)N2CCCC(n3cc(-c4nc(C(C)C)no4)nn3)C2)s1 (centres undefined) | inconclusive: 3.16 µM [inhibitor, full curve, poor fit] |  |
| O=C1CN(C(=O)c2ccc(S(=O)(=O)N3CCCC3)cc2)C(c2ccc(F)cc2)c2cc(F)ccc2N1 (centres undefined) | inconclusive: 20 µM [inhibitor, partial curve, poor fit] |  |

| SMILES | Potency | activity, negative = inhibition |
| --- | --- | --- |
| CCN(c1ccccc1)S(=O)(=O)c1nnc(NC(=O)C(C)Oc2ccccc2)s1 (centres undefined) | inconclusive: 7.94 µM [inhibitor, partial curve] |  |
| COc1cc(F)ccc1-c1cc(C(=O)NCc2cnn(C)c2)c2c(c1)N(C)CCO2 | inconclusive: 3.55 µM [inhibitor, partial curve, poor fit] |  |
| CCN(CC)Cc1ccc2c(c1)CN(C(=O)c1cncc(Br)c1)CCO2 | active: 8.91 µM |  |
| Nc1ccsc1C(=O)N[C@@H]1COCC[C@@H]1OCc1cscn1 | inactive |  |
| CC(C)NC(=O)N1CCC(N2C(=O)C3(CCCC3)C2c2ccccc2)CC1 (centres undefined) | inconclusive: 17.8 µM [inhibitor, single point] |  |
| C[C@@H](NC(=O)Nc1ccccc1)c1onc(-c2ccc(F)cc2)c1C(=O)O | inactive |  |
| Cc1nc(N2CCC(N[C@H]3Cc4ccccc4[C@@H]3N)CC2)c2ccsc2n1 | inconclusive: 6.31 µM [inhibitor, partial curve] |  |
| CCC(=O)N1Cc2ccccc2CC2(CCCCN2CC)C1 (centres undefined) | inconclusive: 14.1 µM [inhibitor, single point] |  |
| O=C1c2oc3ccccc3c(=O)c2C(c2cccc(O)c2)N1Cc1ccc(F)cc1 (centres undefined) | active: 14.1 µM |  |
| Cc1nn(C)c2c1c(-c1ccccc1)cc(=O)n2Cc1c(F)cccc1Cl | inconclusive: 17.8 µM [inhibitor, single point] |  |
| CCc1noc(-c2cn(C3CCN(C(=O)c4cccs4)C3)nn2)n1 (centres undefined) | inactive |  |
| COc1ccc(C(=O)N2CCC3(CC2)N=C(c2ccc(Cl)cc2)NO3)cc1F | inconclusive: 0.355 µM [inhibitor, single point] |  |
| Cc1cccc(NC(=O)c2ccc3c(c2)N(C)C2CCCN2C3=O)c1C (centres undefined) | inactive |  |
| COc1ccc(OC)c([S+](=O)([O-])c2nnn3c2nc(N2CCCCC2)c2ccccc23)c1 | inconclusive: 17.8 µM [inhibitor, single point] |  |
| Cc1cccc(OCC(=O)N[C@@H]2CN(c3ncccn3)C[C@H]2CN(C)C)c1 | inconclusive: 5.62 µM [inhibitor, partial curve, poor fit] |  |
| CCOc1ccccc1NC(=O)c1cc2ccc3cccnc3c2[nH]1 | inconclusive: 4.47 µM [inhibitor, partial curve, poor fit] |  |
| CCN(Cc1ccccc1)C(=O)c1cc2ccc3cccnc3c2[nH]1 | inconclusive: 12.6 µM [inhibitor, single point] |  |
| O=C(c1ccsc1)N1CC(n2cc(-c3ccccc3)nn2)C1 | inconclusive: 0.891 µM [inhibitor, full curve] |  |
| CCOc1ccc(CCNC(=O)c2ccc(C)c(-n3c(C)nc4cccnc43)c2)cc1OCC | inactive |  |
| Cc1cccc(-c2nnc(SCC(=O)NC3CCCCC3)o2)c1 | inconclusive: 10 µM [inhibitor, partial curve, poor fit] |  |
